# Experimental data: PubChem BioAssay AID1347417 (National Center for Advancing Translational Sciences (NCATS), 2020)
# Hit rate of the full screen: of about 120,000 compounds, about 5,300 (4.4%) were called active. Inconclusive results, whose numbers are uncertain, are shown with a selection of clear calls. The call rests on the fitted dose curve; in most records, active means well fitted inhibition curve with a large enough effect; inconclusive means small, poorly fitted or top-dose-only effect; inactive means no such curve, though single readings can be large or run the other way. A potency beside an inconclusive call is a rough fit, not a confirmed value.
# Assay: qHTS Primary assay for Inhibitors of Plasmodium falciparum Dd2 growth in vitro; further: nearly all actives have a fitted effect of over 65% in size
# Conditions: P. falciparum Dd2 growth, SYBR Green, 72 h; series mostly up to 28.9 µM
# Procedure, shortened: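 Infected erythrocytes (Dd2, 0.3% parasitemia, 2.5% hematocrit final) are added to compound in RPMI-1640/Albumax II medium, grown 72 h at 37C in low oxygen, then lysed with saponin/Triton-X containing SYBR Green and read by fluorescence.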
# Potency means the concentration at half of the fitted maximal effect; tags describe the fitted curve by direction and shape.
row,SMILES,Potency
1,COc1ccccc1N1CCN(c2ncnc3c2cnn3-c2cc(Cl)ccc2C)CC1,active: 8.91 µM
2,COC1C(=O)N(C2CCN(C(=O)c3cnn(C)c3)CC2)C12CCOCC2 (stereo not drawn),inactive
3,Cc1cnc(C2CCC2)n1CCN,inactive
4,COc1ccc(C(=O)N2C[C@@H](CO)[C@H](NC(C)=O)C2)c(OC)c1,inactive
5,Cc1ccc(NC(=O)c2cc(S(=O)(=O)N(C)C3CCCCC3)ccc2F)cc1C,"inconclusive: 17.8 µM [inhibitor, single point]"
6,CCCCCN1C(C(=O)c2ccccc2)=C(NC(=O)c2ccc(OC)cc2)c2ccccc2S1(=O)=O,"inconclusive: 17.8 µM [inhibitor, single point]"
7,COc1ccc(Cl)cc1C(=O)NC1CCN(c2cc(-c3ccccc3)[nH]n2)C1 (stereo not drawn),inactive
8,O=C(Nc1ccc(C(=O)N2CCN(c3cccc(Cl)c3)CC2)cc1)c1nsc2ccccc12,"inconclusive: 17.8 µM [inhibitor, single point]"
9,COc1ccc(CNc2nc(SCc3ccc(Cl)cc3)nc3ccccc23)cc1,"inconclusive: 17.8 µM [inhibitor, single point]"
10,COc1ccccc1-c1nc(SCC(=O)c2ccccc2)n[nH]1,inactive
11,COc1ccc(-c2[nH]c(-c3cccc(OC)c3)nc2SCC(=O)Nc2ccc3c(c2)OCO3)cc1,"inconclusive: 11.2 µM [inhibitor, single point]"
12,CC1CCN(C(=O)C2(c3ccc(NC(=O)C4CC4)cc3)CCCCC2)CC1,"inconclusive: 17.8 µM [inhibitor, single point]"
13,CC(C)C(=O)N1CCCN(C)c2ccccc21,"inconclusive: 14.1 µM [inhibitor, single point]"
14,COc1ccccc1CC(=O)N1CCCc2ncc(C(=O)NC(c3ccccc3)c3ccccc3)cc21,inactive
15,CCOC(=O)CC(NC(=O)CCc1c(C)nc2c(c(C)nn2-c2ccc(C)c(C)c2)c1C)c1ccc(C)cc1 (stereo not drawn),active: 4.47 µM
16,Cc1cccc(-n2ncc(C(=O)N3CCN(C4CCCCC4)CC3)c2C2CCN(C(=O)OC(C)(C)C)CC2)c1,"inconclusive: 14.1 µM [inhibitor, single point]"
17,O=C(c1ccccc1)N1CCCN(Cc2ccc3c(c2)OCO3)c2ccccc21,"inconclusive: 17.8 µM [inhibitor, single point]"
18,O=C1CN(Cc2cccc(-c3cccs3)c2)CCN1c1ccc(Cl)nn1,inactive
19,CCCN1CCCC2(Cc3ccccc3CN(C(=O)Cc3ccc(OC)cc3)C2)C1 (stereo not drawn),"inconclusive: 11.2 µM [inhibitor, partial curve, poor fit]"
20,COc1cccc(C(=O)NCCn2ccn3nc(-c4ccc(C)c(C)c4)cc3c2=O)c1OC,"inconclusive: 1.12 µM [inhibitor, partial curve, poor fit]"
21,O=C(c1ccc(C2CCCNC2)cc1)N(Cc1ccccn1)C1CCCCC1 (stereo not drawn),"inconclusive: 11.2 µM [inhibitor, partial curve, poor fit]"
22,CC(C)C(=O)N1Cc2ccccc2CC2(CCCCN2Cc2ccncc2)C1 (stereo not drawn),active: 8.91 µM

row,SMILES,Potency
1,Cc1ccc(C2Cn3cnc(C(=O)N4CCC(C(=O)NCc5cc(F)ccc5F)CC4)c3CO2)cc1 (stereo not drawn),inactive
2,O=C1CCN(C(=O)C2(c3ccccc3)CC2)CCCOCCN1,"inconclusive: 15.8 µM [inhibitor, single point]"
3,COc1ccc(Nc2cnc3ccc(-c4ccc(OC)nc4)nn23)cc1,"inconclusive: 2.82 µM [inhibitor, partial curve, poor fit]"
4,O=C1CC(c2ccccc2)N(C(=O)CC2CCCCC2)CCCCCCN1 (stereo not drawn),"inconclusive: 17.8 µM [inhibitor, single point]"
5,O=C([C@@H]1C[C@H](Oc2ccccc2)CN1C(=O)c1cnccn1)N1CCOCC1,inactive
6,CCOc1ccc(C(=O)/C=C/c2cn(CC(O)CN3CCCCCC3)c3ccccc23)cc1 (stereo not drawn),active: 12.6 µM
7,Cn1c(CCNC(=O)C2Cn3cccc3C(=O)N2)nc2ccccc21 (stereo not drawn),inactive
8,CC(C)CC(=O)N1CCC(C(NC(=O)c2ccccc2)C(=O)N2CCCCC2)CC1 (stereo not drawn),inactive
9,Cc1cccc(C)c1Nc1c(-c2ccccc2F)nc2cccc(C)n12,"inconclusive: 7.94 µM [inhibitor, partial curve, poor fit]"
10,CC(=O)N[C@@H]1[C@@H](NC(=O)c2cn[nH]n2)[C@H]2CCO[C@H]21,inactive
11,CCN1CCC(NCc2cccnc2N2CCN(c3ccccn3)CC2)CC1,"inconclusive: 10 µM [inhibitor, single point]"
12,CCc1nc2c(c(-c3ccc(OC)cc3)n1)CCN([S+](=O)([O-])c1ccc(N(C)C)cc1)CC2,"inconclusive: 8.91 µM [inhibitor, single point]"
13,CC(C)CCn1c(=O)c2cccnc2n(CC(=O)Nc2ccc(F)cc2)c1=O,"inconclusive: 15.8 µM [inhibitor, single point]"
14,Cc1cc2nnc(SCc3ccc(F)cc3)n2c2ccccc12,"inconclusive: 14.1 µM [inhibitor, single point]"
15,Cc1noc(C)c1S(=O)(=O)N1CCC2(CC1)CC(C(=O)N1CCOCC1)N(C)C2 (stereo not drawn),"inconclusive: 2.82 µM [inhibitor, single point]"
16,CN(Cc1ccccc1)C(=O)C[C@@H]1CCNC[C@@H]1Cc1cc(CC2CCCCC2)on1,"inconclusive: 2.51 µM [inhibitor, partial curve, poor fit]"
17,CC(C)Nc1ccc(-c2ccc(S(=O)(=O)NC(C)(C)C)cc2)nn1,"inconclusive: 7.94 µM [inhibitor, partial curve, poor fit]"
18,O=C(c1cccc(Cl)c1)N1CCC(N(C(=O)C2CC2)C2CCOCC2)CC1,"inconclusive: 17.8 µM [inhibitor, partial curve, poor fit]"
19,CCCOc1ccc(C(=O)N2C[C@H](c3cccc(OC)c3)[C@@H](N)C2)cc1Cl,"inconclusive: 17.8 µM [inhibitor, single point]"
20,Cc1cccc(OCC2CCCN(C(=O)c3sc(C(C)C)nc3C)C2)c1 (stereo not drawn),inactive
21,CCC1(C)CC(=O)c2c(ccc3oc(C(=O)NCc4ccccc4)c(C)c23)O1 (stereo not drawn),"inconclusive: 17.8 µM [inhibitor, single point]"
